Measurements taken from the supplement of paper PMC11417369.
The list shows a part of the results.

What follows are sequences tested on PfSIP2 AP2 domain 1 (GST-tagged) (assay: gcPBM binding intensity (ln(normalized median fluorescence intensity)); higher = stronger DNA binding).
How it was run: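 Each value is the highest Masliner-normalised natural-log median intensity across replicate spots of either orientation of a probe. The probes were primer-extended double-stranded 36-bp intergenic genomic sequences on an Agilent 4 × 180k array, alongside negative controls, exposed for 1 h to GST-tagged P. falciparum DNA-binding domains expressed in E. coli. Bound protein was picked up with Alexa488 anti-GST antibody and scanned at 488 nm.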

**Q.** For “TGTATAAAAAACTAATGTACAAATGACAAGATATCT [XGTACX_site4600]”, which “gcPBM binding intensity (ln)” value is on record?
**A.** Its value is 6.9.

**Q.** For “ACAATTCATTAGAATTGTACAAAAGGATGAAGCGAA [XGTACX_site5242]”, which “gcPBM binding intensity (ln)” value is on record?
**A.** Its value is 7.3.

**Q.** Which “gcPBM binding intensity (ln)” value does the source give for “ATTTAATACAAATACACACACAAATATGTACCTATA [CACACA_site7718]” here?
**A.** Its value is 7.16.

**Q.** For “ATTTTTTTTTTTTAATTTGATATTTGCGTTTATATA [CACACA_negctrl_site1305]”, which “gcPBM binding intensity (ln)” value is on record?
**A.** The value was 6.81.

**Q.** With “AATATATGATAATTTTTTTTTTTTTTTTTTAAATAT [CACACA_negctrl_site452]” as the sequence, how does the “gcPBM binding intensity (ln)” value read?
**A.** Its value is 6.79.

**Q.** For “AAAAAATGTTAAAAAAGTACTTTCTTTATTTAATAA [XGTACX_site2908]”, which “gcPBM binding intensity (ln)” value is on record?
**A.** Its value is 6.8.

**Q.** With “AACAATTGTTAAAGGTGTACCATATGTATATAAGAA [XGTACX_site5723]” as the sequence, how does the “gcPBM binding intensity (ln)” value read?
**A.** The value was 7.38.

**Q.** How did the “gcPBM binding intensity (ln)” value turn out when “AGACGTAATAATTGTTGTACATAAAAAAATAAGAAA [XGTACX_site7594]” was run?
**A.** The value was 7.35.

**Q.** Which “gcPBM binding intensity (ln)” value does the source give for “TGTGTTAGCAAAAAAGTGCACAGGGAAAAAAAAATA [GTGCAC_site9397]” here?
**A.** The value was 10.2.

**Q.** Which “gcPBM binding intensity (ln)” value does the source give for “ATGATATTATAAAAAAGTACATATGTATATAATTAT [XGTACX_site7652]” here?
**A.** The value was 7.33.

**Q.** With “AAAAGCTTAAAAAATTGTACATAAATGAATAAATAT [XGTACX_site5201]” as the sequence, how does the “gcPBM binding intensity (ln)” value read?
**A.** Its value is 6.79.

**Q.** For “AAAAATAAAACAATTACACACATAACTTTATTTTTA [CACACA_site6563]”, which “gcPBM binding intensity (ln)” value is on record?
**A.** The value was 7.08.

**Q.** With “ACAAATGGAACTCCTACAAAAAATTTCCATAATATT [XGTACX_negctrl_site132]” as the sequence, how does the “gcPBM binding intensity (ln)” value read?
**A.** Its value is 6.76.

**Q.** “TAAACCTATTATACGGGTACTTATTTGATTCTTATA [XGTACX_site5292]” was tested. Which “gcPBM binding intensity (ln)” value did it give?
**A.** The value was 6.72.

**Q.** How did the “gcPBM binding intensity (ln)” value turn out when “ACCACCATATAACATACATGCATCTTTTTTCCCTTC [TGCATGCA_site583]” was run?
**A.** The value was 7.75.

**Q.** Which “gcPBM binding intensity (ln)” value does the source give for “GAACTCATTTAATATTGTACATTCTGATATTTTTTA [XGTACX_site5995]” here?
**A.** The value was 7.08.

**Q.** Which “gcPBM binding intensity (ln)” value does the source give for “TATATACATACATATACACACATATATATATATATA [CACACA_site401]” here?
**A.** Its value is 9.34.

**Q.** With “GTATAAAATATTGATTGTACTTTATTCATTTTTTTT [XGTACX_site2520]” as the sequence, how does the “gcPBM binding intensity (ln)” value read?
**A.** The value was 6.95.

**Q.** For “TCATATTCCAAGTGTACACATAAATCCCTAATAACA [CACACA_site5167]”, which “gcPBM binding intensity (ln)” value is on record?
**A.** The value was 7.33.

**Q.** How did the “gcPBM binding intensity (ln)” value turn out when “TCATTGTTTAATATGTGTCCTCAAAATTTGTTATAT [XGTACX_site677]” was run?
**A.** Its value is 7.09.

**Q.** How did the “gcPBM binding intensity (ln)” value turn out when “TCTTGTTAATATATTAAATATATCTATAAATATATA [XGTACX_negctrl_site486]” was run?
**A.** Its value is 7.09.

**Q.** Which “gcPBM binding intensity (ln)” value does the source give for “TATATGTGATAACACGCACACAAATGTATATAATTT [CACACA_site2593]” here?
**A.** The value was 7.12.

**Q.** “AAAAAAAAAAAACATACACACATTGAACTTTTATAT [CACACA_site3250]” was tested. Which “gcPBM binding intensity (ln)” value did it give?
**A.** Its value is 6.93.

**Q.** With “ATAAAATAAAAATTCTGTACAGAATTAAAAAAATAT [XGTACX_site6961]” as the sequence, how does the “gcPBM binding intensity (ln)” value read?
**A.** The value was 7.09.

**Q.** How did the “gcPBM binding intensity (ln)” value turn out when “TGTAGCATTTAATTCACACATAAAAAATGTATCCAT [CACACA_site4986]” was run?
**A.** Its value is 6.94.

**Q.** “AAAAAAAGTAAAAAGTGTACTTAATATATATATATA [XGTACX_site838]” was tested. Which “gcPBM binding intensity (ln)” value did it give?
**A.** The value was 9.07.

**Q.** For “TACAATATACCTACTTGTACACAAAATAAAAGTAGT [XGTACX_site6029]”, which “gcPBM binding intensity (ln)” value is on record?
**A.** Its value is 7.13.

**Q.** How did the “gcPBM binding intensity (ln)” value turn out when “TTTTATATAAATATCACACACACACGCATGTTTTAA [CACACA_site6187]” was run?
**A.** The value was 7.07.

**Q.** For “TACACACCTAACTATGCATGCATCAATATAGTGGAT [TGCATGCA_site443]”, which “gcPBM binding intensity (ln)” value is on record?
**A.** Its value is 7.02.

**Q.** “TATTCATGCATATACACACACATATATATATATTTT [CACACA_site3955]” was tested. Which “gcPBM binding intensity (ln)” value did it give?
**A.** The value was 7.57.

**Q.** With “AAAAAAAAATTAAACATACACACGTTACTATTTTTA [CACACA_site1687]” as the sequence, how does the “gcPBM binding intensity (ln)” value read?
**A.** The value was 6.81.

**Q.** Which “gcPBM binding intensity (ln)” value does the source give for “ATCATAATTTATTATACACACAATACGTGACCTATT [CACACA_site6977]” here?
**A.** Its value is 7.12.

**Q.** Which “gcPBM binding intensity (ln)” value does the source give for “AATGAAAAATTGTAATGTACATAAATAAATAAATAA [XGTACX_site4048]” here?
**A.** The value was 7.23.

**Q.** How did the “gcPBM binding intensity (ln)” value turn out when “TACACCCAGAAATGCACACACATATATATATATATA [CACACA_site5289]” was run?
**A.** Its value is 9.44.

**Q.** Which “gcPBM binding intensity (ln)” value does the source give for “ATGAACATGTGACAATGTACATTTATATCTTAAGAA [XGTACX_site4960]” here?
**A.** The value was 7.02.

**Q.** Which “gcPBM binding intensity (ln)” value does the source give for “ATAATATATATATATATGTATGTATATATGTATGTA [GTGCAC_negctrl_site575]” here?
**A.** Its value is 7.39.

**Q.** Which “gcPBM binding intensity (ln)” value does the source give for “TATTCTTATTATTACACACACAATTATATTTACCCC [CACACA_site6381]” here?
**A.** Its value is 7.48.

**Q.** Which “gcPBM binding intensity (ln)” value does the source give for “TATATATATATAATAGCATGCTATATTATATATATA [TGCATGCA_site886]” here?
**A.** Its value is 9.16.

**Q.** For “TTAACATAAATTGTGTCATTTTTTTTTTTTTTTTTA [CACACA_negctrl_site1221]”, which “gcPBM binding intensity (ln)” value is on record?
**A.** Its value is 6.61.

**Q.** Which “gcPBM binding intensity (ln)” value does the source give for “TATTTTTTAATTGTTTCACACATTATTTTTTACATA [CACACA_site6078]” here?
**A.** Its value is 6.94.

**Q.** With “TTAACACATTTTATGTGTACTCATATGATTTAAAAT [XGTACX_site7516]” as the sequence, how does the “gcPBM binding intensity (ln)” value read?
**A.** Its value is 7.1.

**Q.** “TTAAAATGAAGAAGTGCACACATATATATATTTATA [CACACA_site8063]” was tested. Which “gcPBM binding intensity (ln)” value did it give?
**A.** The value was 10.4.

**Q.** “AATTTTTTTTTCTTTTGTACGTAAATATGTGTAGGC [XGTACX_site215]” was tested. Which “gcPBM binding intensity (ln)” value did it give?
**A.** The value was 8.15.

**Q.** Which “gcPBM binding intensity (ln)” value does the source give for “CTAATAAAAAAAAAAAGTACATATGACAATATAAAG [XGTACX_site1598]” here?
**A.** Its value is 6.94.

**Q.** Which “gcPBM binding intensity (ln)” value does the source give for “TATATATTAGTGTTGACACACACAAAAAAAAAAAAA [CACACA_site8392]” here?
**A.** The value was 7.21.

**Q.** With “TATAAACAGACGAAAACACACATATGTAGATATATA [CACACA_site6371]” as the sequence, how does the “gcPBM binding intensity (ln)” value read?
**A.** The value was 6.84.

**Q.** “ATCAGGCAAAATTTTTGTACATATATATTTTATTTT [XGTACX_site1245]” was tested. Which “gcPBM binding intensity (ln)” value did it give?
**A.** Its value is 7.09.

**Q.** With “ATTTTTTTTTTTTTTTTTTTTTTTTATGAATGTTAT [CACACA_negctrl_site1319]” as the sequence, how does the “gcPBM binding intensity (ln)” value read?
**A.** Its value is 6.99.

**Q.** With “AGATTTCAAGGTAATAGATCAATTTTAATTTGTAAA [CACACA_negctrl_site514]” as the sequence, how does the “gcPBM binding intensity (ln)” value read?
**A.** Its value is 6.6.

**Q.** With “ATTTTTTTTTTTTTTTTTTTTTTTTTTTTTTTTTTT [CACACA_negctrl_site1364]” as the sequence, how does the “gcPBM binding intensity (ln)” value read?
**A.** The value was 9.

**Q.** For “TATAAAATACTGTATCGATGGGGGAGGGCGCAGGGG [TGCATGCA_negctrl_site250]”, which “gcPBM binding intensity (ln)” value is on record?
**A.** The value was 8.43.

**Q.** “AAAAAAAAAAAAAAAAAAAAAAAAAAAGATTATGAG [CACACA_negctrl_site1088]” was tested. Which “gcPBM binding intensity (ln)” value did it give?
**A.** The value was 8.62.

**Q.** “TCAAATGTATATAATTGTACTTATCCTTTTCATTTT [XGTACX_site4879]” was tested. Which “gcPBM binding intensity (ln)” value did it give?
**A.** Its value is 6.98.

**Q.** “AAAAATTAGAAACACACACACATATATATATATATT [CACACA_site1042]” was tested. Which “gcPBM binding intensity (ln)” value did it give?
**A.** The value was 7.31.

**Q.** How did the “gcPBM binding intensity (ln)” value turn out when “TTTTAAGTTTTTGAATGTACGTAATTTGTAAATTCT [XGTACX_site2448]” was run?
**A.** Its value is 6.9.

**Q.** How did the “gcPBM binding intensity (ln)” value turn out when “TTACTTGTTTATTTTTTTTTTTTTTTTTTTTTTGTT [TGCATGCA_negctrl_site103]” was run?
**A.** Its value is 6.91.
